{
  "source": "PubChem BioAssay AID1963576",
  "about": "(National Center for Advancing Translational Sciences (NCATS), 2024)",
  "note": "The campaign covered roughly 46,000 compounds. About 60 (0.1%) were called active. Roughly 3% stayed inconclusive and do not appear here. Calls come from the whole dose curve; as a rule, active = well fitted inhibition curve with a large enough effect; inconclusive = small, poorly fitted or top-dose-only effect; inactive = no such curve, though single readings can be large or run the other way. The list shows a part of the results.",
  "data": [
    {"assay": "Primary qHTS assay for Inhibitors of ovarian cancer metastasis using an organotypic tumor microenvironment (TME) model; note: nearly all actives have a fitted effect of over 65% in size;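 for activity change, negative = inhibition: plate controls were DMSO wells for no effect and tomatine positive control wells for full effect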.", "settings": "SKOV3ip1-GFP adhesion/invasion on 3D omental model, fluorescence; series mostly up to 45.8 µM; activity change, negative = inhibition: at the top concentration", "in_short": "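A 3D layer of primary human omental fibroblasts, mesothelial cells, fibronectin and collagen I, grown 48 hr, received SKOV3ip1-GFP cells in serum-free medium plus compounds at 0.36-46 umol/L. After 2 hr RT and 16 hr 37 C, fixed adherent GFP cells were counted; normalized to DMSO and tomatine.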", "values": [
      {"smiles": "O=C(NCCc1ccccc1)c1ccc(CS(=O)(=O)Cc2ccccc2Cl)o1", "activity change, negative = inhibition": "inactive: 9.69%"},
      {"smiles": "Cc1ccc(CNC(=O)C2CCCN(S(=O)(=O)c3cn(C)cn3)C2)cc1", "note": "(configuration not stated)", "activity change, negative = inhibition": "inactive: 3.78%"},
      {"smiles": "COc1ccc(/C=C/C(=O)Nc2sc(C)c(C)c2C(=O)O)cc1", "outcome": "inactive"},
      {"smiles": "CCOc1cc(CN2CCN(S(=O)(=O)c3ccc(C)cc3)CC2)ccc1OC", "activity change, negative = inhibition": "inactive: -8.76%"},
      {"smiles": "COc1ccc(Nc2c(-c3ccc(N4CCOCC4)cc3)nc3ncccn23)cc1OC", "activity change, negative = inhibition": "inactive: -5.5%"},
      {"smiles": "CC(C)c1cnc2c(c1SCC(=O)N1CCCCC1)c(=O)n(C)c(=O)n2C", "outcome": "inactive"},
      {"smiles": "O=c1c(N2CCc3ccccc3C2)csc2ccc(Cl)cc12", "activity change, negative = inhibition": "inactive: 16.8%"},
      {"smiles": "CC(C)Cc1nn2c(=O)cc(COC(=O)c3ccc(NC(=O)CCc4ccccc4)cc3)nc2s1", "activity change, negative = inhibition": "inactive: 3.62%"},
      {"smiles": "O=C(Nc1nnc(S(=O)(=O)N2CCOCC2)s1)c1ccccc1F", "outcome": "inactive"},
      {"smiles": "Cc1ccc(NC(=O)C(C)Sc2nc(-c3ccccc3)c(C#N)c(=O)[nH]2)c(C)c1", "note": "(configuration not stated)", "activity change, negative = inhibition": "inactive: 8.01%"},
      {"smiles": "CC(=O)Nc1ccc(NC(=O)c2ccc3c(c2)NC(=O)c2ccccc2S3)cc1", "outcome": "inactive"},
      {"smiles": "CCn1c(=O)sc2cc(NS(=O)(=O)c3ccc(C)cc3)ccc21", "activity change, negative = inhibition": "inactive: -4.08%"},
      {"smiles": "CCOC(=O)N1CCc2c(sc3c2c(=O)n(Cc2ccccc2)c(=O)n3CC(=O)Nc2ccc(C)cc2C)C1", "activity change, negative = inhibition": "inactive: -9.55%"},
      {"smiles": "CCc1ccc2c(c1)NC(c1ccc(C)cc1)=NC(c1cccs1)=N2", "activity change, negative = inhibition": "inactive: -18.4%"},
      {"smiles": "CCc1ccc(NC(=O)Cn2nnc(C(=O)NCc3ccc(C)cc3)c2N)cc1", "activity change, negative = inhibition": "inactive: 2.55%"},
      {"smiles": "O=C(Nc1ccc(F)cc1F)C1CCN(S(=O)(=O)c2ccc3[nH]c(=O)ccc3c2)CC1", "activity change, negative = inhibition": "inactive: -0.358%"},
      {"smiles": "CCc1ccccc1N(C)C(=O)c1cn(-c2cccc(OC)c2)c(=O)c2ccccc12", "activity change, negative = inhibition": "inactive: 9.34%"},
      {"smiles": "Cc1nc2n(c(=O)c1CCN1CCC(c3noc4cc(F)ccc34)CC1)CCCC2", "activity change, negative = inhibition": "inactive: 10.3%"},
      {"smiles": "CCOc1ccc(C(=O)NCC(c2ccc3c(c2)OCO3)N2CCOCC2)cc1", "note": "(configuration not stated)", "activity change, negative = inhibition": "inactive: 0.0919%"},
      {"smiles": "CC(=O)c1ccc(N2C(=O)N(Cc3ccccc3C#N)c3ccccc3S2(=O)=O)cc1", "activity change, negative = inhibition": "inactive: 2.12%"},
      {"smiles": "CN(C)c1ccc(C2C=C(c3ccccc3)Nc3nnnn32)cc1", "note": "(configuration not stated)", "activity change, negative = inhibition": "inactive: 5.29%"},
      {"smiles": "O=C(CCc1nc2cccnc2n1-c1ccccc1)Nc1ccc(Cl)c(Cl)c1", "activity change, negative = inhibition": "inactive: 0.0812%"},
      {"smiles": "CCc1ccc(OCc2nc(-c3ccc(OC)c(OC)c3)no2)c(Br)c1", "outcome": "inactive"},
      {"smiles": "CC1(C(=O)NC2CCCCC2)Cc2ccccc2C(=O)N1Cc1ccccc1Cl", "note": "(configuration not stated)", "activity change, negative = inhibition": "inactive: 2.98%"},
      {"smiles": "COc1cc(NC(=O)CCc2nc3cccnc3n2Cc2cccs2)cc(OC)c1OC", "activity change, negative = inhibition": "inactive: -4.21%"},
      {"smiles": "Cc1ccc(-n2ncc(C(=O)Nc3ccc4c(c3)OCO4)c2C2CCN(C(=O)OC(C)(C)C)CC2)c(C)c1", "activity change, negative = inhibition": "inactive: -8.26%"},
      {"smiles": "Cc1c(C(=O)Nc2ccc(F)c(Cl)c2)oc2ccc(S(=O)(=O)N(C)C3CCCCC3)cc12", "outcome": "inactive"},
      {"smiles": "COc1cc(-c2noc(-c3ccc(NCc4ccco4)c([N+](=O)[O-])c3)n2)cc(OC)c1OC", "activity change, negative = inhibition": "inactive: 11.5%"},
      {"smiles": "CCCCN(CC)C(=O)c1cc2c(=O)n3ccccc3nc2n1C", "activity change, negative = inhibition": "inactive: -0.346%"},
      {"smiles": "Cc1nn(C)c2c1c(C(F)(F)F)cc(=O)n2CC(=O)N1CCCCC1C", "note": "(configuration not stated)", "activity change, negative = inhibition": "inactive: 0.166%"},
      {"smiles": "CCCOc1ccc(-c2nc(N3CCCCC3)c3ccccc3n2)cc1", "activity change, negative = inhibition": "inactive: -7.51%"},
      {"smiles": "Cc1cn2c(=O)cc(COc3ccc(NC(=O)c4ccccc4C)cc3)nc2s1", "activity change, negative = inhibition": "inactive: -20.9%"},
      {"smiles": "CCOC(=O)c1nc(Nc2ccccc2OC)c2ccccc2n1", "activity change, negative = inhibition": "inactive: 13.5%"},
      {"smiles": "O=C(CN1C(=O)CC(c2ccco2)Sc2ccccc21)Nc1ccc(C(F)(F)F)cc1", "note": "(configuration not stated)", "activity change, negative = inhibition": "inactive: -5.53%"},
      {"smiles": "O=C(Nc1cccc(Cl)c1)N1CCC(CN2CCOCC2)CC1", "activity change, negative = inhibition": "inactive: -0.0803%"},
      {"smiles": "O=C(Cn1cnc2c(oc3ccccc32)c1=O)Nc1ccc(OC(F)(F)F)cc1", "activity change, negative = inhibition": "inactive: 4.88%"},
      {"smiles": "O=C(NCC(c1ccc2c(c1)OCO2)N1CCOCC1)C(=O)Nc1ccc(F)cc1F", "note": "(configuration not stated)", "outcome": "inactive"},
      {"smiles": "COc1cc2[nH]c(=O)n(Cc3ccc(C(=O)N4CCN(c5cc(Cl)ccc5C)CC4)cc3)c(=O)c2cc1OC", "activity change, negative = inhibition": "inactive: -22.8%"},
      {"smiles": "CCOC(=O)c1ccc(NC(=O)c2c(C)nn(-c3ccc(F)cc3)c2-n2cccc2)cc1", "activity change, negative = inhibition": "inactive: 1.02%"},
      {"smiles": "CCn1c(SCc2ccc(F)cc2Cl)nnc1-c1nonc1NC(C)=O", "activity change, negative = inhibition": "inactive: -4.71%"},
      {"smiles": "Cc1ccc2c(c1)N(C(=O)C1CCN(S(=O)(=O)c3c(C)noc3/C=C/c3ccccc3F)CC1)CCO2", "activity change, negative = inhibition": "inactive: 7.23%"},
      {"smiles": "O=C(Nc1nnc(S(=O)(=O)N2CCCc3ccccc32)s1)c1cccc(F)c1", "activity change, negative = inhibition": "inactive: 7.06%"},
      {"smiles": "COc1ccc(N(C(=O)c2cccc(C)c2)S(=O)(=O)c2ccc(C)cc2)cc1", "activity change, negative = inhibition": "inactive: -0.347%"},
      {"smiles": "COC(=O)C1CCN(CC(=O)Nc2cc(C)c3c(=O)oc4ccccc4c3n2)CC1", "activity change, negative = inhibition": "inactive: 20.4%"},
      {"smiles": "Cc1cc(C)c(NC(=O)Cn2ccn(-c3cccc(Cl)c3)c(=O)c2=O)c(C)c1", "activity change, negative = inhibition": "inactive: -3.68%"},
      {"smiles": "O=C(CCC1N=C2c3ccccc3N=C(SCc3ccccc3F)N2C1=O)NCCc1ccccc1", "note": "(configuration not stated)", "activity change, negative = inhibition": "inactive: -6.88%"},
      {"smiles": "COc1ccccc1CNC(=O)Cc1csc2nc(-c3ccccc3)cn12", "activity change, negative = inhibition": "inactive: 14.8%"}
    ]}
  ]
}
